Data on 84 variants can be found in the RNAGym collection of RNA variant scans (doi:10.1093/nar/gkz1192).

The labels stand for the following.
B1: CPEB3 Ribozyme (parent)
chain: UAACAGGGGGCCACAGCAGAAGCGUUCACGUCGCAGCCCCUGUCAGAUUCUGGUGAAUCUGCGAAUUCUGCUGUAUAUCUC

The source gives no read counts; variants with many changes may rest on few reads.

Variants of B1 are the subject of the data set. In words: self-cleavage, relative activity (ratio to wild type); higher = more cleavage; in vitro, sequencing. In short, it runs like this:
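Libraries of CPEB3 self-cleaving ribozyme mutants came from rounds of error-prone PCR and carried barcodes, which DNA sequencing matched to variants. In vitro transcription used T7 RNA polymerase at 37°C for 5 hours, with a further 15 min in DNase I before EDTA stopped the reaction; the ribozymes cleaved during both steps. The RNA was reverse transcribed with template switching and sequenced on Illumina. Relative activity is the cleaved/total read fraction of a variant divided by that of the unmutated ribozyme, averaged over three batches with at least 5 reads.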
With A5G A21C U26A G36U U41C, the self-cleavage was 0.07.

In the case of A5G A21G C40U C81U, the self-cleavage was found to be 0.81.

As to A5G A13G A35U U78C, the self-cleavage was 0.32.

Consider A5G A20G G42A U66C U69A U72C, for which the self-cleavage is 0.09.

Consider A5G A15U A28C A35U, for which the self-cleavage came out at 0.38.

On to C4U G9C A15G A56G U60C U72C, for which the self-cleavage was 0.04.

In the case of A5C C29U A35U U43A, the self-cleavage turned out to be 0.2.

Regarding A5G A21G U51A A64G U72G, the self-cleavage amounted to 0.11.

For C4U G6A A20G A77G, the self-cleavage was found to be 0.29.

With A5G A28G G36U U58C U60C, the self-cleavage worked out at 0.06.

Turning to A5G A35U A45G G61A A65G, the self-cleavage turned out to be 0.08.

A5G A56C U72C: the self-cleavage stood at 0.53.

For the variant C4U A35U U41A U60C U72C, the self-cleavage came out at 0.14.

Take A5G A65G U66C: the self-cleavage was found to be 0.12.

For the variant A5G A18G U25C A65G, the self-cleavage was found to be 0.09.

Consider A5G A35U C44U, for which the self-cleavage was 0.23.

As for A5G A21G U31A A77U, the self-cleavage is 0.63.

Regarding A5G A28G U58C U66C, the self-cleavage worked out at 0.

Consider C4U A56U U58A, for which the self-cleavage was 0.61.

On to A5G C17U C40A U60G A64G A77U, for which the self-cleavage turned out to be 0.09.

As to C4U A20G U31C, the self-cleavage came out at 0.61.

In the case of A5G A21G U25C, the self-cleavage is 0.72.

With A5G A28G A35U A65G, the self-cleavage is 0.06.

Turning to A5C U54A U66C, the self-cleavage worked out at 0.35.

For the variant A5G A35U A75U U78C, the self-cleavage worked out at 0.22.

For the variant A5G C11U U43C G52A, the self-cleavage was 0.23.

Consider A5C U41A A57C, for which the self-cleavage was 0.25.

A5G C14U G52U: the self-cleavage worked out at 0.92.

As for C4U A18G U51C A56G, the self-cleavage worked out at 0.62.

Consider C4G U25G U72A, for which the self-cleavage was 0.12.

As for A5C A20G U43C A45G U72C U78A U80C, the self-cleavage was 0.22.

In the case of C4U G7A A18U A21G G42A A56U, the self-cleavage stood at 0.07.

In the case of A5G A15G U72C, the self-cleavage turned out to be 0.87.

For the variant A5G A13C A21U U60C, the self-cleavage is 0.7.

For C4G A18G G24U U54C, the self-cleavage was found to be 0.08.

With A5C A15G A64G, the self-cleavage came out at 0.83.

Consider A5G A18U A20G U54A, for which the self-cleavage turned out to be 0.17.

For C4U C12A C29U A45G G61A U76A, the self-cleavage was found to be 0.72.

Turning to A5G A28G U48G C68A, the self-cleavage came out at 0.29.

As for A5G A20G A47G, the self-cleavage came to 0.76.

For A5G A13G A18G A28U A45U U51A U54C, the self-cleavage was 0.12.

Turning to C4U A57G U74C, the self-cleavage was 0.88.

On to C4U U41A U43A U58A, for which the self-cleavage amounted to 0.16.

In the case of A5G A13U C50A, the self-cleavage worked out at 0.8.

As to A5C U25C U74C, the self-cleavage worked out at 0.65.

Regarding A5G A28G U41G A64C U66G U67A C71A, the self-cleavage amounted to 0.05.

Consider A5C U41A U78C, for which the self-cleavage was 0.19.

For C4U A13C U31C U51A U74G U76C, the self-cleavage stood at 1.07.

Regarding C4A C32U U60C A64U C71U A77G, the self-cleavage came to 0.05.

For C4U A65G U69A U72A, the self-cleavage turned out to be 0.52.

As for C4U C12U A13G U25C U72A A75U U80C, the self-cleavage was found to be 0.09.

Turning to C4U C11A C39G A47G U54C, the self-cleavage came to 0.08.

On to A5C A18C A75U, for which the self-cleavage turned out to be 0.83.

On to A5G A15G A35G A57G G73A, for which the self-cleavage came out at 0.88.

Consider A5G C17U A18G C38U U41C U66C U78C, for which the self-cleavage was determined as 0.16.

In the case of A5C A13U U26C A28G C39A, the self-cleavage amounted to 0.46.

As for A5G A15G U43G, the self-cleavage was found to be 0.25.

As for C4U U25A U41A, the self-cleavage is 0.47.

Consider A5G A18U A47G, for which the self-cleavage came out at 0.49.

With C4U U54C A65U U66A U69A, the self-cleavage was determined as 0.41.

Take A5G A13G U26A C38U U76C: the self-cleavage was 0.21.

As for A5G A18U G33U A35G A45G U54C, the self-cleavage stood at 0.27.

As to A5G C23U U67C, the self-cleavage is 0.16.

On to C4U G30U A35G U80C, for which the self-cleavage turned out to be 0.16.

As for C4U A18G G19A U78C, the self-cleavage was determined as 0.17.

With A5C G36A C71U A75G, the self-cleavage came to 0.15.

For A5G C17A U67C, the self-cleavage was 0.22.

On to A5G A21G A65G, for which the self-cleavage amounted to 0.38.

For the variant A5G A21G C37A, the self-cleavage was found to be 0.17.

As for A5G A20G A64G U80C, the self-cleavage turned out to be 0.55.

Take A5G A21G U26C G33A U54G U67C: the self-cleavage was 0.06.

Regarding A5G A21G U41C U48C A56U, the self-cleavage was determined as 0.1.

As to A5G A15U A35U U49C, the self-cleavage came out at 0.27.

For C4U A35G A64U, the self-cleavage amounted to 1.08.

As to A5G A20G A45G, the self-cleavage worked out at 0.48.

As to C4U A13G A35U, the self-cleavage stood at 0.84.

For the variant A5G A20G A57U, the self-cleavage was 0.27.

Regarding A5G A20G A45G U60A, the self-cleavage amounted to 0.44.

For the variant A5G A13C A35U U78A, the self-cleavage came to 0.29.

Consider A5G C12U U51A A56U U67A, for which the self-cleavage turned out to be 0.11.

In the case of A5C A20U U60A, the self-cleavage turned out to be 0.17.

Consider A5C A13G A15U A35G U67C, for which the self-cleavage came to 0.81.

As for A5G A18G A35U U69A, the self-cleavage amounted to 0.25.

As to A5G C29U G30C U48A U72C, the self-cleavage stood at 0.32.
